Data reported in PubChem BioAssay AID504832 (National Center for Advancing Translational Sciences (NCATS), 2011).
Values joined by “and” are separate entries in the source; they are usually repeats but may differ in a detail not shown here. Equal entries are not always repeated. The whole screen tested about 310,000 compounds, of which about 18,000 (5.8%) were called active. The shares of active, inactive and inconclusive entries below differ from those in the screen. Calls follow the shape of the dose curve; as a rule, active = well fitted inhibition curve with a large enough effect; inconclusive = small, poorly fitted or top-dose-only effect, or another doubt; inactive = no such curve, though single readings can be large or run the other way. Where the call is inconclusive, the potency comes from a doubtful curve fit.

test: Primary qHTS for delayed death inhibitors of the malarial parasite plastid, 48 hour incubation; conditions: P. falciparum luciferase growth in erythrocytes; series mostly up to 28.7 µM; activity change, negative = inhibition: at the top concentration
How it was run: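 Firefly luciferase activity from engineered P. falciparum reports growth; inhibitors lower the luminescent signal. Cultures contained 2% hematocrit erythrocytes at 0.1% final parasitemia.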
% is scaled to controls: 0 for no effect and ±100 for the full control effect; potency is read from the fitted curve at half-maximal effect; tags tell the direction and shape of the fitted curve.

| Structure (SMILES) | activity change, negative = inhibition | Potency |
| --- | --- | --- |
| CSc1nc(O)cc(=O)n1-c1ccc(F)cc1 | inactive: 17.3% | – |
| CCN(CC)C(=O)c1ccc(NC(=O)Nc2ccccc2F)cc1 | inactive: 253% | – |
| Cc1ccccc1NCC(=O)N/N=C/c1c(C)c(C(=O)c2ccc(Cl)cc2)n2ccccc12 | – | active: 13.1 µM |
| S=C1NCCOCCOCCNC(=S)N2CCOCCOCCN1CCOCCOCC2 | inactive: 2.9% | – |
| Cc1ccc(-c2nnn(CC(=O)N(Cc3cccs3)C(C(=O)NC(C)(C)C)c3ccco3)n2)o1 (centres undefined) | inactive: 0% | – |
| CCOC(=O)C(=O)N/N=C(/c1ccccc1)c1ccc(OC)cc1 | inactive: -69.7% | – |
| CCN(CCCc1ccccc1)CCCc1ccccc1 | – | inconclusive: 20.8 µM [inhibitor, partial curve, poor fit] |
| Cc1cc(C)n(CCCNC(=O)c2ccc(C)c(S(=O)(=O)N3CCOCC3)c2)n1 | – | inconclusive: 18.5 µM [inhibitor, single point] |
| C=CCOc1ccc(/C=C/C(=O)OCC(=O)N(C)CC(=O)Nc2ccc(F)cc2)cc1 | – | inconclusive: 11.7 µM [inhibitor, partial curve] |
| COc1cc(O)c(C(CCN2CCOCC2)c2cc(OC)c(OC)c(OC)c2)c(OC)c1 (centres undefined) | – | inconclusive: 10.4 µM [inhibitor, single point] |
| C(#CCN1CCOCC1)COC(c1ccccc1)c1ccccc1 | – | inconclusive: 14.7 µM [inhibitor, single point] |
| COc1ccc(CCNC(=O)c2ccccc2NC(=O)c2ccco2)cc1OC | – | inconclusive: 5.86 µM [inhibitor, partial curve] |
| Cc1ccc(C2=NN(CC(=O)NCc3ccccn3)C(=O)CC2)cc1 | inactive: 9.79% | – |
| COCCN(Cc1ccccc1)C(=O)c1cc(-c2ccc(OC)c(OC)c2)nc2ccccc12 | – | active: 9.28 µM |
| CCCCc1ccc(NC(=S)Nc2cccnc2)cc1 | inactive: 15.4% | – |
| O=C1OCCN/C1=C\C(=O)c1ccccc1 | inactive: 89.3% | – |
| Cc1c(NC(=O)C(C)OC(=O)CCc2c[nH]c3ccccc23)c(=O)n(-c2ccccc2)n1C (centres undefined) | – | inconclusive: 18.5 µM [inhibitor, single point] |
| COc1cc(OC)c(-c2nn3c(-c4ccco4)nnc3s2)cc1OC | – | active: 10.4 µM |
| Cc1c(C(=O)NC2CCCCC2)oc2ccc(F)cc12 | inactive: 50.4% | – |
| CCOC(=O)c1c(C)[n+](-c2ccc(C)cc2)c(CC)c2cc(OC)c(OC)cc12 | – | active: 0.828 µM |
| CCCCCCNc1cc2n(c(=O)n1)CCc1cc(OC)c(OC)cc1-2 | – | inconclusive: 9.28 µM [inhibitor, partial curve] |
| Cn1c(CN2CCCC2)nc2cc(NS(=O)(=O)c3ccccc3)ccc21 | inactive: -6.18% | – |
| COCCNC(=S)N/N=C(\C)c1ccc2cc(OC)ccc2c1 | – | inconclusive: 13.1 µM [inhibitor, single point] |

| Structure (SMILES) | activity change, negative = inhibition | Potency |
| --- | --- | --- |
| COc1ccc(/C=C/C(=O)c2c(C)nc3ccccn23)cc1 | inactive: 36% | – |
| CCOC(=O)C1CCN(C(=O)N(CC)CC)CC1 | inactive: 3.99% | – |
| COc1ccc(N2CC(C(=O)N[C@@H](C)C(=O)N3CCCCC3)CC2=O)cc1 (some centres undefined) | inactive: -10.3% | – |
| O=C(NN(c1ccccc1)c1ccccc1)c1ccccc1F | – | inconclusive: 18.5 µM [inhibitor, partial curve, poor fit] |
| COc1ccccc1N1CCN(CC(=O)Nc2ccc(C)c(F)c2)CC1 | – | inconclusive: 0.0738 µM [inhibitor, full curve, poor fit] |
| Cc1ccc(C)c(NC(=O)Cn2c(=O)n(-c3ccc(CC(=O)NCC4CCCO4)cc3)c(=O)c3ccccc32)c1 (centres undefined) | inactive: 15.7% | – |
| COc1ccc2nc(N3CCCCC3)c(C#N)cc2c1 | – | inconclusive: 18.5 µM [inhibitor, single point] |
| COc1ccc(C2c3c(n[nH]c3C)CC(C)(O)C2C(C)=O)cc1OC (centres undefined) | – | inconclusive: 0.522 µM [inhibitor, full curve, poor fit] |
| Nc1nn(-c2ccccc2Cl)cc1-c1nn[nH]n1 | inactive: -8.94% | – |
| C=CCOC(=O)C1=C(C)NC(C)=C(C(=O)OCC=C)C1c1ccco1 | – | inconclusive: 10.4 µM [inhibitor, partial curve] |
| O=C1OCC(CO)(CO)N=C1NNc1ccc(Cl)c(Cl)c1 | – | inconclusive: 18.5 µM [inhibitor, single point] |
| CN1CCCN(C(=O)c2cc(-c3cccc4ccccc34)nc3ccccc23)CC1 | – | inconclusive: 11.7 µM [inhibitor, single point] |
| CC1CCC(C(C)C)C(OC(=O)C2=C3c4ccccc4S(=O)(=O)N3CC2)C1 (centres undefined) | – | inconclusive: 8.28 µM [inhibitor, partial curve] |
| Cc1cc(C(=O)N/N=C2\CC(=O)CC(C)(C)C2)c(C)n1-c1ccccc1 | – | inconclusive: 18.5 µM [inhibitor, single point] |
| COC(=O)c1ccc(NC(=O)CSc2nc3ccc(N4C(=O)C5C6C=CC(C6)C5C4=O)cc3s2)cc1 (centres undefined) | – | inconclusive: 18.5 µM [inhibitor, single point] |
| O=C(CCN1CCN2CCCC2C1)N1c2ccccc2Sc2ccc(Cl)cc21 (centres undefined) | – | inconclusive: 15.1 µM [inhibitor, single point] and inconclusive: 13.1 µM [inhibitor, single point] |
| CC1(C)CC(=O)c2cc(C(=O)NCc3ccco3)c(=O)n(-c3ccc(Cl)cc3)c2C1 | – | inconclusive: 13.1 µM [inhibitor, single point] |
| CCN1CCN(C(=O)C2CCCN(S(=O)(=O)c3ccc(OC)c(OC)c3)C2)CC1 (centres undefined) | inactive: 4.01% | – |
| Cc1cc(C)cc(NC(=O)C(OC(=O)c2ccc(O)cc2)c2ccccc2)c1 (centres undefined) | – | inconclusive: 9.28 µM [inhibitor, partial curve, poor fit] |
| NC(=O)NN=C1C2CCCC1C(c1ccccc1)NC2c1ccccc1 (centres undefined) | – | inconclusive: 0.0828 µM [inhibitor, full curve, poor fit] |
| CC(C)Cc1nnc(NC(=O)C23CC4CC(CC(C4)C2)C3)s1 | – | inconclusive: 18.5 µM [inhibitor, single point] |
| CC1(C)CC(=O)C=C(NC2CCCCCCC2)C1 | – | inconclusive: 4.15 µM [inhibitor, partial curve] |
| CCOC(=O)c1ccc(NC(=O)c2nc[nH]c2C(=O)NCC(=O)OC(C)(C)C)cc1 | – | inconclusive: 11.7 µM [inhibitor, single point] |

| Structure (SMILES) | activity change, negative = inhibition | Potency |
| --- | --- | --- |
| CCOC(=O)c1cc2c(ccn2-c2ccc(F)cc2)n1CC(=O)N(CC)CC | – | inconclusive: 9.28 µM [inhibitor, single point] |
| CC(=O)N1CCCc2cc(S(=O)(=O)NC(C(=O)NC3CCCCC3)C(C)C)ccc21 (centres undefined) | – | inconclusive: 18.5 µM [inhibitor, single point] |
| Cc1nc(C(=O)N(C)C)nn1-c1ccc([N+](=O)[O-])cc1 | inactive: 9.53% | – |
| CCN1CCN(S(=O)(=O)c2ccc(C(=O)Nc3sc4c(c3C(N)=O)CCN(CC)C4)cc2)CC1 | – | inconclusive: 14.7 µM [inhibitor, single point] |
| Cc1ccc(C(=O)C(C)OC(=O)CCS(=O)(=O)c2ccc(C)cc2)cc1 (centres undefined) | inactive: -4.08% | – |
| O=c1c2ccccc2nc(SCc2ccc([N+](=O)[O-])cc2)n1-c1ccccc1 | – | inconclusive: 18.5 µM [inhibitor, single point] |
| O=C(NCc1cccnc1)NC1(C(F)(F)F)Oc2ccccc2O1 | – | inconclusive: 8.28 µM [inhibitor, partial curve] |
| CC(C)CC1NC(=O)N(CC(=O)NC2CCCCC2)C1=O (centres undefined) | – | inconclusive: 18.5 µM [inhibitor, single point] |
| O=C(c1cccc(N2C(=O)C3C4C=CC(C4)C3C2=O)c1)N1CCN(c2ccccc2F)CC1 (centres undefined) | – | inconclusive: 11.7 µM [inhibitor, partial curve, poor fit] |
| Cc1cccc(N2C(=O)c3ccc(C(=O)Nc4cccc(C(=O)O)c4)cc3C2=O)c1 | inactive: 56.5% | – |
| O=c1c(CO)cc(CO)cc(CO)c1O | – | inconclusive: 18.5 µM [inhibitor, single point] |
| CC1CCC2(CC1)NC(=O)N(CC(=O)NC(=O)NC1CCCC1)C2=O (centres undefined) | inactive: -14.5% | – |
| COc1cccc(NC(=O)CCc2c(C)nc3nc(CNC(=O)c4cccc(F)c4)nn3c2C)c1 | – | inconclusive: 11.7 µM [inhibitor, single point] |
| O=C(CSc1nc(-c2ccco2)cc(C(F)(F)F)n1)Nc1ccc(C(=O)N2CCOCC2)cc1 | – | inconclusive: 14.7 µM [inhibitor, single point] |
| CCCCCOc1ccc(C(=O)CCC(=O)Nc2ccc(NC(C)=O)cc2)cc1 | inactive: 56.1% | – |
| N#CC1(NC(=O)COc2cc(F)ccc2[N+](=O)[O-])CCCCC1 | inactive: -27.9% | – |
| Cc1ccc(NC(=O)COC(=O)c2c(C)nn(-c3ccccc3)c2C)cc1 | – | inconclusive: 18.5 µM [inhibitor, single point] |
| COc1ccc2nc(NC(=O)c3ccccc3[N+](=O)[O-])sc2c1 | inactive: 13.1% | – |
| COc1ccc(N2CC(C(=O)N/N=C/c3cc([N+](=O)[O-])ccc3O)CC2=O)cc1 (centres undefined) | – | inconclusive: 10.4 µM [inhibitor, single point] |
| CCCN(CCC)CCCNC(=O)c1cc2cc3ccc(OC)cc3nc2o1 | – | inconclusive: 18.5 µM [inhibitor, single point] |
| C[C@H](NC(=O)[C@@H]1Cc2ccccc2CN1C(=O)OC(C)(C)C)C(=O)NC1CCCCC1 | – | inconclusive: 0.0828 µM [inhibitor, full curve, poor fit] |
| CCCN(C(=O)c1cccc(S(=O)(=O)N2CCN(Cc3ccccc3)CC2)c1)C1CCS(=O)(=O)C1 (centres undefined) | – | inconclusive: 16.5 µM [inhibitor, partial curve, poor fit] |
| CCc1ccc(C(C)NC(=O)Cn2cnc3c(=O)n(C)c(=O)n(C)c32)cc1 (centres undefined) | – | inconclusive: 10.4 µM [inhibitor, single point] |
